Some of the results follow. These are noisy estimates, calculated here from bound and input reads.
Target: T1, Pho4 (S. cerevisiae) (UniProt P07270)
T1 sequence: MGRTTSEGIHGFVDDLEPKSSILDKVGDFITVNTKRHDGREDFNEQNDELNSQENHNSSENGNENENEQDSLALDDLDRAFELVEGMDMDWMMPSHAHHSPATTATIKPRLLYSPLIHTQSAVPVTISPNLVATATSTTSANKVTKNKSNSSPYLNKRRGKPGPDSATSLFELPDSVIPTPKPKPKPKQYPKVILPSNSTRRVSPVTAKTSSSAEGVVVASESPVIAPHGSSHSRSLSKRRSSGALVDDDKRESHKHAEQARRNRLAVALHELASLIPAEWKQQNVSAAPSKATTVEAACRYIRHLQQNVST
Assay: relative binding free energy (BET-seq); higher = weaker binding
Details: reference: library average

Sequence | relative binding free energy [kcal/mol]
GAGGCCACGTGTTTGT | 0
CTGGCCACGTGGGTTG | -0.12
ATATACACGTGTTTAT | -0.12
TATTTCACGTGTCTTT | 0.21
CCGGGCACGTGATGGG | -0.05
AGTTTCACGTGTCCGT | 0.36
TGGCGCACGTGTGGAA | -0.14
GAATACACGTGGTGGC | 0.18
GTGTGCACGTGTTTAG | -0.04
CGACTCACGTGGGGTA | 0.18
CTGCGCACGTGAGGGG | 0.1
TTCGACACGTGTAGGT | 0.12
GGAGGCACGTGCGTTT | -0.08
TGTCTCACGTGTGGTG | 0.1
GGTCTCACGTGATTGT | 0.36
GATGTCACGTGGTAAG | 0.02
GCATACACGTGTGGGG | -0.01
TCGATCACGTGTTTTT | 0.22
AGTTGCACGTGCAAAG | 0.06
CTGTTCACGTGGGCTT | 0.14
GAGGACACGTGTTGTG | 0
TTTAGCACGTGCATTT | -0.07
GGGCGCACGTGTGTGC | -0.11

Sequence | relative binding free energy [kcal/mol]
TGTGTCACGTGTCTGT | 0.08
AACTGCACGTGGTATG | -0.09
TGCAACACGTGGGGTG | -0.18
AGATGCACGTGGAGAG | -0.05
GTGCGCACGTGGAATA | 0.18
ATGGTCACGTGGGTCA | -0.09
TGTGTCACGTGGTTAC | -0.05
GATGGCACGTGGTTTT | 0
GTGGGCACGTGTATGG | -0.01
AATATCACGTGGGTTT | 0.14
GATTTCACGTGTTGCA | 0.38
GAAGACACGTGAGGTG | 0.21
TGTGACACGTGCTAGT | -0.11
TTTGTCACGTGATATA | 0.12
ATTGGCACGTGGTTTG | -0.23
GATTGCACGTGTATAT | 0.14
AGTACCACGTGGGGTA | -0.33
ATAGTCACGTGGGATC | 0.04
CGGGGCACGTGCAGGC | -0.01
TGATGCACGTGTTGAA | -0.03
GGGGTCACGTGATTCA | 0.23
TGAGGCACGTGCGAAT | 0.1
CCGAGCACGTGGGTGT | -0.25

Sequence | relative binding free energy [kcal/mol]
GACGGCACGTGTGGGA | -0.11
CTTTTCACGTGTGATG | 0.45
TTTATCACGTGTTTTA | 0.07
AAATTCACGTGTGCTT | 0.18
GAAGGCACGTGGGCGC | -0.22
ACGTGCACGTGGTTGA | -0.21
ATAAACACGTGATTGT | 0.1
GTTGACACGTGGATTG | 0.11
CACGGCACGTGCGGGT | -0.12
TTTGGCACGTGAAGGT | 0.15
TGTTTCACGTGCTTGC | 0.32
CTATTCACGTGAAGGT | 0.44
TTTTGCACGTGAGCCG | 0.21
AGTTGCACGTGCTGAT | -0.08
TATAGCACGTGATGCT | -0.09
GATCTCACGTGGGGCT | 0.19
TTTGACACGTGCAATG | 0.13
TTTGTCACGTGGAGCA | 0.03
ATTAGCACGTGGAATG | 0.07
AATCGCACGTGGTAGT | -0.17
TGTTGCACGTGCCGTT | 0.03
TGTGGCACGTGGGTAA | -0.18
TTGCACACGTGTGTGG | 0.07

Sequence | relative binding free energy [kcal/mol]
CTTATCACGTGGCGGG | 0
GTGCACACGTGGGATA | 0.05
TGTTTCACGTGATGCG | 0.2
CTATGCACGTGTTGGG | 0.07
TGTGGCACGTGGAGTT | -0.02
GTTTACACGTGCTAGT | 0.13
GTTGACACGTGGCTTG | -0.24
CTTGCCACGTGTTTGT | -0.09
CGCGGCACGTGGTGGG | -0.23
ATGCTCACGTGGGTTC | 0.04
GTGTTCACGTGGCTGC | 0.17
TATAACACGTGTTTTG | -0.11
TTTAGCACGTGTCTGT | -0.18
AGGGCCACGTGTAATG | 0.07
TCTTGCACGTGGTTCG | -0.03
AAGGACACGTGGTAGT | -0.02
TGCTTCACGTGATATA | 0.37
TTGCGCACGTGGTTCG | -0.1
AATCTCACGTGGGGGG | -0.01
TTCGGCACGTGTTAAT | 0.05
TTTGTCACGTGGGATC | 0.14
GGACGCACGTGGGGTG | -0.29
TGGTGCACGTGTTCAA | -0.06

Sequence | relative binding free energy [kcal/mol]
GAGGACACGTGTGGAG | 0.12
ATGTGCACGTGGGATT | -0.18
GGTGTCACGTGGACTA | 0
AAGGTCACGTGGTCGT | -0.01
TTTCGCACGTGGGAGC | -0.08
AGTTGCACGTGTTGAT | 0.01
TATCTCACGTGTTAGG | 0.1
ATAAACACGTGTTAAG | 0.18
GTTATCACGTGATTGG | 0.33
TCAGGCACGTGAGGTT | 0.09
AACGTCACGTGGTGAT | 0.06
TGTTACACGTGAGTTC | 0.27
TAATACACGTGGTTAT | -0.09
GGTAACACGTGTTTCG | 0.13
TGAAGCACGTGTCGGG | -0.14
TTTGACACGTGTTGTC | -0.02
GGGAGCACGTGTATAT | -0.02
GTTGACACGTGTGGTG | 0.1
AGCCGCACGTGAGTGT | 0.13
GTCTTCACGTGGAGGG | 0.3
GGGCGCACGTGCGGAT | -0.08
TTTATCACGTGTTAAT | 0.13
CGTTACACGTGGATTG | 0.14

From the BET-seq Pho4 binding data (Le et al. 2018)
